# The campaign covered roughly 280,000 compounds. About 100 (0.036%) were called active. The inconclusive results got no clear call from the source; some entries with a clear call stand among them for comparison. Calls follow the shape of the dose curve; as a rule, active = well fitted inhibition curve with a large enough effect in the signal ratio, with a control signal flat (not every such curve was filed as active); inconclusive = small, poorly fitted or top-dose-only effect, or effect the other way, or a change in a side signal; inactive = no such curve, though single readings can be large or run the other way; the % refers to the signal ratio. Potencies beside an inconclusive call are fits to weak or partial responses and may not hold up. A note “side channel” means that the fit belongs to a control or component signal, not to the main read-out.
# Target: Muscleblind-like protein 1 (Homo sapiens) (UniProt Q9NR56)
# Sequence of UniProt Q9NR56 (Q9NR56 whole entry, looked up): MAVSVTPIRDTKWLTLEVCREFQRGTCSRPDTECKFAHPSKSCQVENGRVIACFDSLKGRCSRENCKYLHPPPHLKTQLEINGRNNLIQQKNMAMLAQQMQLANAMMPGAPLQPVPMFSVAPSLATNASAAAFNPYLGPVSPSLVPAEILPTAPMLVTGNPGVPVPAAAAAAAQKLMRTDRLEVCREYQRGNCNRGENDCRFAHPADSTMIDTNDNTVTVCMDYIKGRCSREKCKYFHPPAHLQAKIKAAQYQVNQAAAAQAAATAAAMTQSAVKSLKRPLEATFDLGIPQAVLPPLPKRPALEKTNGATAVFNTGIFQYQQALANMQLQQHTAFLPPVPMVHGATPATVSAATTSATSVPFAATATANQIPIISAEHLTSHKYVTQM
# Experiment: qHTS Assay for Inhibitors of MBNL1-poly(CUG) RNA binding
# Conditions: TR-FRET MBNL1-His/biotin-(CUG)12 binding, 665/545 ratio; series mostly up to 57.5 µM
# Method in brief: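 TR-FRET readout: Ex 340 nm, 665/545 nm emission ratio, normalized to buffer-only (basal) and MBNL1-(CUG)12 controls. Complex of MBNL1-His with Biotin-(CUG)12, compounds 92 nM–58 uM, incubated 60 min at room temperature.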
# Potency is read from the fitted curve at half-maximal effect; tags tell the direction and shape of the fitted curve or compound fluorescence and quenching.
row,SMILES,Potency
1,CC1CCCN(c2c([N+](=O)[O-])cc(C(=O)O)cc2[N+](=O)[O-])C1 (stereo not given),"inconclusive: 31.6 µM [quencher, side channel, single point]"
2,COc1cc(C)nc(OCCNC(=O)COc2ccc(Cl)cc2C)n1,inactive
3,O=C(C#Cc1ccccc1)c1ccc([N+](=O)[O-])cc1,"inconclusive: 14.1 µM [quencher, side channel, partial curve]"
4,COc1ccc(-c2[nH]c(-c3cccc(OC)c3)nc2SCC(=O)NC2CCCC2)cc1,inactive
5,O=C(c1cc(-c2ccncc2)nc2ccccc12)N1CCN(c2ccc(N3CCOCC3)nn2)CC1,"inconclusive: 28.2 µM [quencher, side channel, single point]"
6,Cc1ccc(C2=NC3(CCCC3)N=C2SCC(=O)Nc2ccc3c(c2)OCCO3)cc1,"inconclusive: 0.1 µM [inhibitor, full curve, poor fit]"
7,CN1CCc2nc3sc(C(=O)C45CC6CC(CC(C6)C4)C5)c(N)c3cc2C1,"inconclusive: 25.1 µM [quencher, side channel, partial curve]"
8,O=C1/C(=C/c2ccc(F)cc2)SC(=S)N1CCCC(=O)N1CCCCC1CCO (stereo not given),"inconclusive: 15.8 µM [quencher, partial curve]"
9,N#CC(C#N)=C1C=C2C=C(N3CCCCC3)CCC2CC1 (stereo not given),"inconclusive: 2.82 µM [quencher, side channel, full curve]"
10,Oc1ccc(N=Nc2ccc3ccccc3c2)cc1,"inconclusive: 44.7 µM [quencher, side channel, partial curve, poor fit]"
11,CN(CCOc1ccccc1)CC(=O)Nc1cc([N+](=O)[O-])ccc1Cl,"inconclusive: 14.1 µM [quencher, side channel, partial curve]"
12,CN1C(=O)/C(=C/C=C2/CCCN2C)N(C)C1=S,"inconclusive: 20 µM [quencher, partial curve]"
13,N#Cc1sc2nc3c(cc2c1N)CCCC3,"inconclusive: 12.6 µM [quencher, side channel, partial curve]"
14,COc1cccc(OCCCCN2CCCCC2)c1,inactive
15,CCOc1ccccc1C(=O)Nc1cccc(-c2ccc3nncn3n2)c1,"inconclusive: 10 µM [quencher, side channel, partial curve]"
16,Cc1ccc(OCCOc2cccc3ccc(C)nc23)c([N+](=O)[O-])c1,"inconclusive: 39.8 µM [quencher, side channel, partial curve, poor fit]"
17,CC1(c2ccccc2)CC(C)(C)N2C(=O)/C(=C3\SC(=S)NC3=O)c3cccc1c32 (stereo not given),"inconclusive: 0.316 µM [fluorescent, side channel, full curve, poor fit]"
18,N#C/C(=C\C=C\c1ccccc1)C(=O)NCc1cccnc1,"inconclusive: 11.2 µM [quencher, side channel, partial curve]"
19,CC1CCCN(C(=O)C2CCCN(S(=O)(=O)c3cccc4nsnc34)C2)C1 (stereo not given),"inconclusive: 8.91 µM [quencher, side channel, partial curve]"
20,COc1ccc(N/C(C)=C2/C(=O)C(=O)N(CCO)C2c2ccc([N+](=O)[O-])cc2)cc1 (stereo not given),"inconclusive: 17.8 µM [quencher, side channel, partial curve]"
21,O=C(C1=C(O)C(=O)N(c2ncccn2)C1c1ccc(Cl)cc1)c1ccco1 (stereo not given),"inconclusive: 25.1 µM [quencher, side channel, single point]"
22,Cc1cccc(C)c1N1CCN(CCn2c(=S)[nH]c3ccccc3c2=O)CC1,inactive
23,O=[N+]([O-])c1cccc(-c2ccc(SCc3cccnc3)nn2)c1,"inconclusive: 10 µM [quencher, partial curve]"
24,COc1ccc(/C=C2\SC(=S)N(CC(=O)N3CCN(C)CC3)C2=O)cc1,"inconclusive: 2.82 µM [quencher, side channel, full curve]"
25,COc1nc(-c2ccccc2)ccc1-c1noc(-c2ccco2)n1,inactive
26,Cc1nn2c(NCCN(C)C)c3c(nc2c1-c1ccccc1)CCCC3,inactive
27,COc1ccc(C(=O)NC(CC(=O)O)c2cc([N+](=O)[O-])ccc2Cl)c(SC)c1 (stereo not given),"inconclusive: 31.6 µM [quencher, side channel, partial curve]"
28,CCCC(C)NC(=O)c1cc(C(=O)OC)cc([N+](=O)[O-])c1 (stereo not given),"inconclusive: 15.8 µM [quencher, side channel, partial curve]"

row,SMILES,Potency
1,CCC(C)(C)n1nnnc1C(C(C)C)N(Cc1ccco1)Cc1cc2cc3c(cc2[nH]c1=O)OCO3 (stereo not given),"inconclusive: 31.6 µM [quencher, side channel, single point]"
2,CC1C/C(=C/c2cccn2C)C(=O)/C(=C/c2cccn2C)C1 (stereo not given),"inconclusive: 14.1 µM [quencher, side channel, partial curve]"
3,O=C(c1ccc([N+](=O)[O-])cc1)N1CCSC1c1ccccc1Cl (stereo not given),"inconclusive: 2.82 µM [quencher, side channel, single point]"
4,CCc1ccc(S(=O)(=O)/N=C2\C=C(Nc3cccc(C(=O)O)c3)C(=O)c3ccccc32)cc1,"inconclusive: 25.1 µM [quencher, side channel, partial curve]"
5,Cc1nc(N2CCOCC2)c2c(C)c(C(=O)Nc3ccccc3C(F)(F)F)sc2n1,inactive
6,C/C(=N/N1CCN(c2ccccn2)CC1)c1ccc([N+](=O)[O-])cc1,"inconclusive: 7.08 µM [quencher, partial curve]"
7,CCOc1ccc(-c2c(=O)n(OCc3ccccn3)c3ccccc3[n+]2[O-])cc1,"inconclusive: 2.82 µM [quencher, side channel, full curve]"
8,COc1ccc(-n2c(C)cc(C(=O)Cn3nc(C(=O)O)c4ccccc4c3=O)c2C)cc1,"inconclusive: 1.58 µM [fluorescent, side channel, full curve, poor fit]"
9,NS(=O)(=O)c1ccc(N/N=C/c2ccc[nH]2)c([N+](=O)[O-])c1,"inconclusive: 5.01 µM [quencher, side channel, partial curve]"
10,CCCN1CCN(c2ccc([N+](=O)[O-])cc2C#N)CC1,"inconclusive: 15.8 µM [quencher, side channel, partial curve]"
11,Cc1cccc2sc(NC(=O)c3ccc(OCC4CCCO4)cc3)nc12 (stereo not given),"inconclusive: 22.4 µM [fluorescent, partial curve]"
12,COCCCN1C(=O)c2ccc(C(=O)Nc3cccc(OC)c3)cc2C1=O,"inconclusive: 15.8 µM [quencher, side channel, partial curve]"
13,COc1cc(C(=O)Nc2ccc(C(C)=O)cc2)c(Br)c(OC)c1OC,"inconclusive: 1.12 µM [quencher, side channel, single point]"
14,C/C=C\C=C/C(=O)Nc1cccc(C2=NOC3(C2)C[C@H](C(N)=O)N(C(=O)Cc2ccc([N+](=O)[O-])cc2)C3)c1 (stereo not given in full),"inconclusive: 14.1 µM [quencher, side channel, partial curve]"
15,O=C(Nc1cccc(-c2cn3ccccc3n2)c1)c1cc2ccccc2oc1=O,"inconclusive: 0.141 µM [quencher, side channel, full curve, poor fit]"
16,COc1ccccc1CC(=O)Nc1cccc(C(=O)NN2C(=O)c3ccccc3C2=O)c1,"inconclusive: 44.7 µM [quencher, side channel, partial curve, poor fit]"
17,COc1ccc(/C(N)=N/OC(=O)c2cccs2)cc1OC,"inconclusive: 17.8 µM [quencher, side channel, partial curve]"
18,CCN(CC)S(=O)(=O)c1cccc(NC(=O)CCNC(=O)c2ccc([N+](=O)[O-])cc2)c1,"inconclusive: 12.6 µM [quencher, side channel, partial curve]"
19,COc1cc(/C=C2/C(=O)NN(c3ccccc3)C2=O)cc(Br)c1O,"inconclusive: 31.6 µM [quencher, side channel, single point]"
20,O=C(/C=C/c1ccc(O)cc1)c1ccc(NC2=C(N3CCCCC3)C(=O)c3ccccc3C2=O)cc1,"inconclusive: 20 µM [quencher, side channel, single point]"
21,CCCCC(CC)CNC(=O)CN(C)S(=O)(=O)c1cccc2nsnc12 (stereo not given),"inconclusive: 3.55 µM [quencher, side channel, full curve]"
22,Cn1c(=O)n(C)c2cc([N+](=O)[O-])c(N3CCN(CCO)CC3)cc21,"inconclusive: 15.8 µM [quencher, side channel, partial curve]"
23,O=C(O)c1cc([N+](=O)[O-])c(NCc2cccnc2)c([N+](=O)[O-])c1,"inconclusive: 2.82 µM [quencher, side channel, full curve, poor fit]"
24,COc1ccc2cc3cc(C(=O)NC(C)C)oc3nc2c1,"inconclusive: 17.8 µM [quencher, side channel, partial curve]"
25,COC(=O)c1nnc(-c2ccccc2)nc1OC,"inconclusive: 22.4 µM [quencher, side channel, partial curve]"
26,COC(=O)Cc1[nH]nc2c1C(c1c[nH]c3ccccc13)C(C#N)=C(N)O2 (stereo not given),"inconclusive: 14.1 µM [quencher, side channel, partial curve]"
27,Cc1ccc(Sc2ccc(C(=O)N3CCOCC3)cc2[N+](=O)[O-])cc1,"inconclusive: 7.94 µM [quencher, side channel, partial curve]"
